Measurements taken from PubChem BioAssay AID504706 (National Center for Advancing Translational Sciences (NCATS), 2011).
Hit rate of the full screen: of about 320,000 compounds, about 200 (0.062%) were called active. The inconclusive results got no clear call from the source; some entries with a clear call stand among them for comparison. Calls follow the shape of the dose curve; as a rule, active = well fitted activation curve with a large enough effect; inconclusive = small, poorly fitted or top-dose-only effect; inactive = no such curve, though single readings can be large or run the other way. Potencies of inconclusive entries are left out as doubtful fits.

assay: qHTS assay for re-activators of p53 using a Luc reporter; conditions: H1299 p53-A138V BP100-luciferase reporter, luminescence, 24 h; series mostly up to 92.2 µM; activity change, positive = activation: at the top concentration; also: nearly all actives have a fitted effect of over 45% in size; as to activity change, positive = activation: % of control where 0% means no effect
Procedure, shortened: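 H1299 (p53-null), stable ts p53-A138V + BP100-Luc; 1000 cells/well, Opti-MEM/10% FBS; cpd 4 pt, 1:5; 24 h, 37 deg C, 5% CO2; detection reagent 10 min RT; luminescence.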
Potency is read from the fitted curve at half-maximal effect; tags tell the direction and shape of the fitted curve.

Q: With `C=CCNC(=S)N1CCC(C(=O)c2ccc(C)cc2)CC1` as the compound, how does the “activity change, positive = activation” value read?
A: inactive: 5.21%

Q: Which Potency does the source give for `COc1ccc(/C=C/C(=O)c2ccc3c(c2)OCO3)c(OC)c1` here?
A: inconclusive [activator, partial curve, poor fit]

Q: Which Potency does the source give for `O=C1/C(=C/c2cccs2)CCC1C1CCCC1` (configuration not stated) here?
A: inconclusive [activator, single point]

Q: With `O=C(N/N=C/c1ccc(Br)cc1)c1ccc(F)cc1` as the compound, how does the Potency read?
A: inconclusive [activator, partial curve, poor fit]

Q: Which “activity change, positive = activation” value does the source give for `O=C(NCCN1CCN(S(=O)(=O)c2ccc([N+](=O)[O-])cc2)CC1)C(=O)Nc1ccccc1` here?
A: inactive: 3.44%

Q: For `COc1cc(/C=C(\C#N)c2nc3ccccc3[nH]2)ccc1OC(=O)c1ccco1`, which Potency is on record?
A: inconclusive [activator, partial curve, poor fit]

Q: For `O=S(=O)(CCOc1ccccc1)c1nc2ccccc2[nH]1`, which Potency is on record?
A: inconclusive [activator, single point]

Q: For `COc1cccc(OCc2cc(C(=O)N3CCN(C)C(c4ccccc4)C3)no2)c1` (configuration not stated), which Potency is on record?
A: inconclusive [activator, partial curve, poor fit]

Q: With `Cc1ccc(C2NC(=O)c3ccccc3N2)s1` (configuration not stated) as the compound, how does the Potency read?
A: inconclusive [activator, partial curve]

Q: For `CCNC(=O)N1c2ccc(OCC)cc2C(C)=CC1(C)C`, which “activity change, positive = activation” value is on record?
A: inactive: -32.1%

Q: Which Potency does the source give for `Cc1ccc(C2NC(=O)NC3=C2CCc2ccccc23)cc1` (configuration not stated) here?
A: inconclusive [activator, partial curve, poor fit]

Q: For `Cc1ccc(S(=O)(=O)Nc2nc3ccccc3nc2NCc2ccco2)cc1`, which Potency is on record?
A: inconclusive [activator, full curve, poor fit]

Q: Which Potency does the source give for `O=C(CCn1c(=O)sc2ccccc21)Nc1nccs1` here?
A: inconclusive [activator, single point]

Q: Which Potency does the source give for `COc1ccc2nc(SCC(=O)N3CCNC3=O)[nH]c2c1` here?
A: inconclusive [activator, full curve, poor fit]

Q: For `COCCNC(=O)c1ccc2c3n(nc2c1)-c1ccccc1CO3`, which Potency is on record?
A: inconclusive [activator, full curve, poor fit]

Q: With `Oc1cccc2c(-c3nn[nH]n3)ccnc12` as the compound, how does the “activity change, positive = activation” value read?
A: inactive: 0.807%

Q: With `COc1ccc(-c2cc(C#N)nc(Cl)n2)cc1` as the compound, how does the “activity change, positive = activation” value read?
A: inactive: -7.37%

Q: Which Potency does the source give for `CCc1ccc(C(=O)/C=C2\Sc3ccccc3NC2=O)cc1` here?
A: inconclusive [activator, full curve]

Q: For `COc1ccc(C(C)=O)cc1COC(=O)c1ccc(C)c(S(=O)(=O)N2CCOCC2)c1`, which “activity change, positive = activation” value is on record?
A: inactive: -9.17%

Q: With `O=C(COc1ccc2cc(-c3ccccc3)c(=O)oc2c1)NCC1CCC(C(=O)O)CC1` (configuration not stated) as the compound, how does the “activity change, positive = activation” value read?
A: inactive: 18.2%

Q: Which Potency does the source give for `O=C(c1ccccc1Cl)N1CCC(N2CCC(C(=O)N3CCCC3)CC2)CC1` here?
A: inconclusive [activator, single point]

Q: Which Potency does the source give for `O=C(NCc1cccs1)c1cc(-c2cccs2)on1` here?
A: inconclusive [activator, single point]

Q: Which Potency does the source give for `CCc1c(C)nc(SCCOc2ccc(OC)cc2)[nH]c1=O` here?
A: inconclusive [activator, single point]

Q: For `Cc1occc1C(=O)NNC(=S)Nc1ccccc1C(F)(F)F`, which Potency is on record?
A: inconclusive [activator, full curve, poor fit]

Q: For `O=C(CCc1ccc(S(=O)(=O)N2CCOCC2)cc1)OCc1nc2ccccc2s1`, which Potency is on record?
A: inconclusive [activator, full curve, poor fit]

Q: With `O=C(/C=C/c1ccco1)NC(=S)Nc1cccc(C(=O)O)c1` as the compound, how does the Potency read?
A: inconclusive [activator, single point]

Q: Which Potency does the source give for `CCC(=O)Oc1cccc(C(=O)Nc2ccc(-c3nnc(-c4ccco4)o3)cc2)c1` here?
A: inconclusive [activator, partial curve, poor fit]

Q: Which “activity change, positive = activation” value does the source give for `Cc1cc(-c2nnc3n2N=C(c2ccc(-c4ccccc4)cc2)CS3)n[nH]1` here?
A: inactive: -37.9%

Q: For `COc1cc(/C=N/NC(=O)c2ccccn2)ccc1OC(=O)c1ccc(Br)cc1`, which “activity change, positive = activation” value is on record?
A: inactive: 7.21%

Q: For `Cc1cccc(Nc2nnc(SCC(=O)Nc3ccccc3[N+](=O)[O-])s2)c1`, which Potency is on record?
A: inconclusive [activator, full curve]

Q: For `OCC1CCCN(C(=S)Nc2ccc(OC(F)F)cc2)C1` (configuration not stated), which Potency is on record?
A: inconclusive [activator, partial curve, poor fit]

Q: For `Cc1ccc(NC(=O)N(Cc2ccco2)Cc2cc3cc(C)cc(C)c3nc2Cl)cc1`, which Potency is on record?
A: inconclusive [activator, single point]

Q: For `COC(=O)c1ccc(N=NN2CCOCC2)cc1`, which Potency is on record?
A: inconclusive [activator, partial curve, poor fit]

Q: Which “activity change, positive = activation” value does the source give for `COc1cccc(N2CN(C3CCCCC3)CNC2=S)c1` here?
A: inactive: -3.08%

Q: With `CC(C)=CCCC(C)CN1CCC(N2CCC(C(=O)N3CCOCC3)CC2)CC1` (configuration not stated) as the compound, how does the “activity change, positive = activation” value read?
A: inactive: -1.36%

Q: For `O=C(NCC1CC1(Cl)Cl)Nc1ccc(Cl)c(Cl)c1` (configuration not stated), which Potency is on record?
A: inconclusive [activator, partial curve, poor fit]

Q: With `Cn1nc(SCC(=O)O)sc1=S` as the compound, how does the Potency read?
A: inconclusive [activator, single point]

Q: With `Cc1ccc(C)c(OCC(=O)Nc2cccc(C(=O)O)c2)c1C` as the compound, how does the Potency read?
A: inconclusive [activator, partial curve, poor fit]

Q: Which “activity change, positive = activation” value does the source give for `COc1ccc(S(=O)(=O)N2CCCC2)cc1NC(=O)c1ccccc1F` here?
A: inactive: -0.659%

Q: For `O=C1COc2ccc(C(=O)COC(=O)c3ccccc3[N+](=O)[O-])cc2N1`, which Potency is on record?
A: inconclusive [activator, partial curve, poor fit]

Q: With `O=C(Nc1ccccc1)c1ccc(NCC2CCCO2)c([N+](=O)[O-])c1` (configuration not stated) as the compound, how does the Potency read?
A: inconclusive [activator, partial curve, poor fit]

Q: With `Cc1ncc(CO)c2cc(C(N)=O)c(=Nc3ccccc3)oc12` as the compound, how does the Potency read?
A: inconclusive [activator, partial curve, poor fit]

Q: For `O=C(N/N=C/c1cccc2cccnc12)c1ccccc1O`, which Potency is on record?
A: inconclusive [activator, partial curve, poor fit]

Q: Which Potency does the source give for `Cc1csc(SCC(=O)Nc2nc(-c3ccccc3)cs2)n1` here?
A: inconclusive [activator, single point]

Q: For `CCCn1c(O)c(CN2CCCCC2)c(C)c(C#N)c1=O`, which “activity change, positive = activation” value is on record?
A: inactive: -1.32%

Q: For `COc1ccc(OC)c(NC(=O)c2ccc(N3C(=O)C4CC=C(C)CC4C3=O)cc2)c1` (configuration not stated), which “activity change, positive = activation” value is on record?
A: inactive: -8%

Q: Which Potency does the source give for `Cc1ccc(/C=C/C(=O)N2CCCC(C)C2)cc1` (configuration not stated) here?
A: inconclusive [activator, partial curve, poor fit]

Q: With `COc1ccc(OC(=O)c2cnn(-c3ccccc3)c2C)cc1` as the compound, how does the Potency read?
A: inconclusive [activator, partial curve, poor fit]

Q: Which Potency does the source give for `CCc1c(C)nc(SCC(=O)c2cccs2)c(C#N)c1C` here?
A: inconclusive [activator, partial curve, poor fit]

Q: With `O=C(CSc1nnc(SCc2cccc3ccccc23)s1)N/N=C/c1c[nH]c2ccccc12` as the compound, how does the Potency read?
A: inconclusive [activator, single point]

Q: With `COc1ccc(C[C@H]2CN3C(=NC[C@H]3Cc3ccccc3)N2CCNC(=O)CCC2CCCCC2)cc1` as the compound, how does the “activity change, positive = activation” value read?
A: inactive: -4.56%

Q: With `CC(C(=O)O)n1nc2ccccc2n1` (configuration not stated) as the compound, how does the Potency read?
A: inconclusive [activator, partial curve, poor fit]

Q: For `COc1ccc2nc(NC(=O)Nc3ccccc3OC)sc2c1`, which Potency is on record?
A: inconclusive [activator, partial curve, poor fit]

Q: Which Potency does the source give for `CN(C)/C=C1/Sc2ccccc2C1=O` here?
A: inconclusive [activator, single point]

Q: For `CCC(C)OC(=O)c1[nH]c2c(c1C)C(=O)CC(c1ccc(N(C)C)cc1)C2` (configuration not stated), which Potency is on record?
A: inconclusive [activator, partial curve, poor fit]

Q: With `O=C(N/N=C/c1ccsc1)c1cc2ccccc2o1` as the compound, how does the Potency read?
A: inconclusive [activator, single point]

Q: For `COc1ccc(C(=O)NCCSc2ccccc2)cc1OC`, which Potency is on record?
A: inconclusive [activator, partial curve, poor fit]

Q: For `COc1ccc(/C(N)=N/OC(=O)c2ccco2)cc1OC`, which Potency is on record?
A: inconclusive [activator, partial curve, poor fit]

Q: For `C=CCNC(=O)c1ccc2c3n(nc2c1)-c1ccc(C)cc1CO3`, which Potency is on record?
A: inconclusive [activator, partial curve, poor fit]

Q: For `COC(=O)CSc1ncccc1-c1nc2ccccc2[nH]1`, which Potency is on record?
A: inconclusive [activator, single point]

Q: Which Potency does the source give for `O=C(/C=C1\NC2(CCCC2)Cc2ccccc21)C(=O)N/N=C/c1ccccc1O` here?
A: inconclusive [activator, partial curve, poor fit]

Q: Which “activity change, positive = activation” value does the source give for `CC(C)CC(NC(=O)c1ccc(Cl)cc1)C(=O)OCc1cc([N+](=O)[O-])cc2c1OCOC2` (configuration not stated) here?
A: inactive: -4.47%

Q: Which “activity change, positive = activation” value does the source give for `CC1(C)C(C(=O)OCC(Cl)(Cl)Cl)N2C(=O)C(NC(=O)Cc3ccccc3)C2S1=O` (configuration not stated) here?
A: inactive: 3.55%

Q: Which Potency does the source give for `Cc1sc2nc(CN3CCCCC3)nc(Cl)c2c1C` here?
A: inconclusive [activator, single point]

Q: Which Potency does the source give for `O=C(CCn1c(=O)oc2ccccc21)Nc1nccs1` here?
A: inconclusive [activator, single point]

Q: For `CN(Cc1ccco1)S(=O)(=O)c1nnc(NC(=O)c2ccc(F)cc2)s1`, which Potency is on record?
A: inconclusive [activator, partial curve, poor fit]

Q: With `CCCN(CCC)S(=O)(=O)c1ccc(C(=O)Nc2nc(-c3ccccc3)c(C(=O)OCC)s2)cc1` as the compound, how does the “activity change, positive = activation” value read?
A: inactive: -11.4%
